No constants are given. Whether binding was seen depends on the method and setting. For part of these data: Binding seen in cells or lysates may run through a third protein. Some binding calls cover weakened binding; strength is not graded here. For part of these data: Where a sequence is shown, tags or fusion partners need not be part of it.
Legend:
[1] = target: T1, TLN161-M1/A, Gal4 DNA binding domain fusion (human) (UniProt A2RTX5); experiment: two-hybrid; TLN161 linker mutants with p43 and ArgRS; data not shown
T1 sequence: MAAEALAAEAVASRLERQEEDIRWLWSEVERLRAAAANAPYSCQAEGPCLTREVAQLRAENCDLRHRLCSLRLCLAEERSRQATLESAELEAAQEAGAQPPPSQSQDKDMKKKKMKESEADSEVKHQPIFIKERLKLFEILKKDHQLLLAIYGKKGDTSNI

[2] = target: T2, TLN161, N-terminal appended domain of hThrRS-L (Met1-Ile161), Gal4 DNA binding domain fusion (human) (UniProt A2RTX5); experiment: as above
T2 sequence: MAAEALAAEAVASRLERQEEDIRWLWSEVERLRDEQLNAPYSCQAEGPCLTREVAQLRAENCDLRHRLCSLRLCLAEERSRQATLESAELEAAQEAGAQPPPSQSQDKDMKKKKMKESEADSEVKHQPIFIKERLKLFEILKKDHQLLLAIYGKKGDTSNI

[3] = target: T3, TLN161-M2/A, Gal4 DNA binding domain fusion (human) (UniProt A2RTX5); experiment: as above
T3 sequence: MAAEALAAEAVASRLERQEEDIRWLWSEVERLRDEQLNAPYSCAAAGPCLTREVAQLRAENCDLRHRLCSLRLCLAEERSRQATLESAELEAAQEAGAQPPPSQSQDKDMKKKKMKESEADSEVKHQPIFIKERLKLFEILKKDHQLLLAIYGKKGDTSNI

[4] = target: T4, TLN161-M3/A, Gal4 DNA binding domain fusion (human) (UniProt A2RTX5); experiment: as above
T4 sequence: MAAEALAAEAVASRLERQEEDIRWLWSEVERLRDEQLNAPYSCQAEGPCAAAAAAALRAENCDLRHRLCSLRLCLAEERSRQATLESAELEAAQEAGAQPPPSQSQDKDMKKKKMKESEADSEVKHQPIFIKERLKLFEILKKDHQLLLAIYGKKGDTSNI

[5] = target: T2, TLN161, N-terminal appended domain of hThrRS-L (Met1-Ile161), Gal4 DNA binding domain fusion (human); experiment: two-hybrid; pairwise: pGADT7 construct and pGBKT7 construct together in Y2HGold; growth on QDO/X/A (SD/QDO/X) plates
[6] = target: T5, TLN161(1-74), N-terminal part of TLN161, Gal4 DNA binding domain fusion (human) (UniProt A2RTX5); experiment: as above
T5 sequence: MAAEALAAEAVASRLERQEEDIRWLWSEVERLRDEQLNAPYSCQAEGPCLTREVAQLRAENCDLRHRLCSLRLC

[7] = target: T6, TLN161-Ha/A, Gal4 DNA binding domain fusion (human) (UniProt A2RTX5); experiment: as above
T6 sequence: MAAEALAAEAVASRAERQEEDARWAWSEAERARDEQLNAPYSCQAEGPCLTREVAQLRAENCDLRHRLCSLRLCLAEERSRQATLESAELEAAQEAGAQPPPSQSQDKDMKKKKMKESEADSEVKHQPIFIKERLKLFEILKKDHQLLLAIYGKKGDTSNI

[8] = target: T7, TLN161-Ha/Hb/A, Gal4 DNA binding domain fusion (human) (UniProt A2RTX5); experiment: as above
T7 sequence: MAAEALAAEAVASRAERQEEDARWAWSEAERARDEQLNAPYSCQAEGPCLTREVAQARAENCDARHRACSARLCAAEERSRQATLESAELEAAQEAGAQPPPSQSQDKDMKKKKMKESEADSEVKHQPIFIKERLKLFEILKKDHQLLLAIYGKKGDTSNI

[9] = target: T8, TLN161(75-161), C-terminal part of TLN161, Gal4 DNA binding domain fusion (human) (UniProt A2RTX5); experiment: as above
T8 sequence: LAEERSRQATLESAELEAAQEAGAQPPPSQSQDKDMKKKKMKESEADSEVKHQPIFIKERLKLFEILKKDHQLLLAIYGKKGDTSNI

[10] = target: T9, TLN161-Hb/A, Gal4 DNA binding domain fusion (human) (UniProt A2RTX5); experiment: as above
T9 sequence: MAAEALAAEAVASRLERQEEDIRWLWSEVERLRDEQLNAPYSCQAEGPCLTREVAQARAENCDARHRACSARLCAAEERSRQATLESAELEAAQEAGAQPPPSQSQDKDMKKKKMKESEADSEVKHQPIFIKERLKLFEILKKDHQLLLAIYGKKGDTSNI

[11] = target: T10, hThrRS-L-His6 expressed in E. coli (human) (UniProt A2RTX5); experiment: pull-down; hThrRS-L-His6 co-expressed with the partner from pRSFDuet1 in E. coli; Ni-NTA affinity chromatography; western blotting
T10 sequence: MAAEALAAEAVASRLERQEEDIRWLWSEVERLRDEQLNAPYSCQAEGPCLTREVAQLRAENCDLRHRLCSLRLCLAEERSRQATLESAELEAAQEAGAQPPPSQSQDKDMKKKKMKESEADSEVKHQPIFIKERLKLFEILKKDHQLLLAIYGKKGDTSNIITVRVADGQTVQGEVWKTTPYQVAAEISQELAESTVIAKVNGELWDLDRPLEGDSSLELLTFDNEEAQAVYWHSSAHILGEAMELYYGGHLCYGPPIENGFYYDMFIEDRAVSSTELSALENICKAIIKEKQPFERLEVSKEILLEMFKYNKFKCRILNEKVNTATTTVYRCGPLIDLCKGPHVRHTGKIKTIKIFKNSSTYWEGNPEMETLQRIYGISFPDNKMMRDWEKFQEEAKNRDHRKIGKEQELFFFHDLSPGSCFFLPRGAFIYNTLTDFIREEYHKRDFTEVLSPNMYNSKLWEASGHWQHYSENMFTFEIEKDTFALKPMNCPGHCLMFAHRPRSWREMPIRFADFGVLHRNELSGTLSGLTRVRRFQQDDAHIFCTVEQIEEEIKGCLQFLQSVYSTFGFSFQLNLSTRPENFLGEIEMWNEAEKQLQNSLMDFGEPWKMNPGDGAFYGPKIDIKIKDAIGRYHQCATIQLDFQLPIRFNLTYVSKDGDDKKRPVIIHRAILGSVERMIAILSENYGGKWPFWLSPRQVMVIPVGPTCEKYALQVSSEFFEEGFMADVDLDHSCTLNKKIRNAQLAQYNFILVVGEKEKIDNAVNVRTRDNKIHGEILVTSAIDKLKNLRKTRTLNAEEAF

[12] = target: T11, native mouse ThrRS-L (mThrRS-L) (mouse (endogenous in muscle tissue and NIH/3T3)) (UniProt Q8BLY2); experiment: SEC; mouse muscle tissue extract on Superose-6, 50 mM Tris-HCl pH 7.5, 50 mM NaCl, 1 mM PMSF, 1 mM DTT; fractions immunoblotted
T11 sequence: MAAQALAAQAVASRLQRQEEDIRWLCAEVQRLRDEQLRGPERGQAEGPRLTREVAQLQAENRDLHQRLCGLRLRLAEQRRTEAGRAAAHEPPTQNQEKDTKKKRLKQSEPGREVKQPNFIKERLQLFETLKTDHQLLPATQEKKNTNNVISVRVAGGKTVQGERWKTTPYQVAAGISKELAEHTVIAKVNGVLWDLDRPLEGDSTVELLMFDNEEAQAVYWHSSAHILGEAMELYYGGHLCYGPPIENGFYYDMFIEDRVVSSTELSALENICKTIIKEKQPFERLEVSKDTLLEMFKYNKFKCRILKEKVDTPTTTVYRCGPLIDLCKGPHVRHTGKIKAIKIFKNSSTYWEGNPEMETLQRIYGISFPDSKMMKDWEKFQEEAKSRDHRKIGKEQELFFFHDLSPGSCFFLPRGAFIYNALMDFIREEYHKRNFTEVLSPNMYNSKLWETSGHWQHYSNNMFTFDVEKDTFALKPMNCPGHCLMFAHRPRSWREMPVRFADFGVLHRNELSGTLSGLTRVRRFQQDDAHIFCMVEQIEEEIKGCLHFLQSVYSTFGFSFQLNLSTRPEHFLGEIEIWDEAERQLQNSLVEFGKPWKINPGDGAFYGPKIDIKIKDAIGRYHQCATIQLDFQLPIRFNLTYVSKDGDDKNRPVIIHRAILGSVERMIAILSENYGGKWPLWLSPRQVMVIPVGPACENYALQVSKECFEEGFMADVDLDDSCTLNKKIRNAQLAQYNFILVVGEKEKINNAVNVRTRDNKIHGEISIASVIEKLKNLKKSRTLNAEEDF

B1: N-terminal leucine-zipper domain of ArgRS (Met1-Asn72), Gal4 activation domain fusion (domain or fragment, UniProt P54136 1-72)
chain: MDVLVSECSARLLQQEEEIKSLTAEIDRLKNCGCLGASPNLEQLQEENLKLKYRLNILRKSLQAERNKPTKN
binding [1]: binds | binding [2]: binds | binding [3]: binds | binding [4]: binds | binding [5]: binds | binding [6]: binds | binding [7]: no binding | binding [8]: no binding | binding [9]: no binding | binding [10]: no binding

B2: ArgRS overexpressed in E. coli (enzyme, UniProt P54136 1-660)
chain: MDVLVSECSARLLQQEEEIKSLTAEIDRLKNCGCLGASPNLEQLQEENLKLKYRLNILRKSLQAERNKPTKNMINIISRLQEVFGHAIKAAYPDLENPPLLVTPSQQAKFGDYQCNSAMGISQMLKTKEQKVNPREIAENITKHLPDNECIEKVEIAGPGFINVHLRKDFVSEQLTSLLVNGVQLPALGENKKVIVDFSSPNIAKEMHVGHLRSTIIGESISRLFEFAGYDVLRLNHVGDWGTQFGMLIAHLQDKFPDYLTVSPPIGDLQVFYKESKKRFDTEEEFKKRAYQCVVLLQGKNPDITKAWKLICDVSRQELNKIYDALDVSLIERGESFYQDRMNDIVKEFEDRGFVQVDDGRKIVFVPGCSIPLTIVKSDGGYTYDTSDLAAIKQRLFEEKADMIIYVVDNGQSVHFQTIFAAAQMIGWYDPKVTRVFHAGFGVVLGEDKKKFKTRSGETVRLMDLLGEGLKRSMDKLKEKERDKVLTAEELNAAQTSVAYGCIKYADLSHNRLNDYIFSFDKMLDDRGNTAAYLLYAFTRIRSIARLANIDEEMLQKAARETKILLDHEKEWKLGRCILRFPEILQKILDDLFLHTLCDYIYELATAFTEFYDSCYCVEKDRQTGKILKVNMWRMLLCEAVAAVMAKGFDILGIKPVQRM
binding [11]: binds

B3: mouse ArgRS, endogenous in muscle tissue (enzyme, UniProt Q9D0I9 1-660)
chain: MDGLVAQCSARLLQQEREIKALTAEIDRLKNCGCLEASPSLEQLREENLKLKYRLNILRRSLQEERRKPTKNMININSRLQEVFGCAIRAAYPDLENPPLIVTPSQQPKFGDYQCNSAMGISQMLKAKEQKVSPREIAENITKHLPNNKYIDKVEIAGPGFINVHLRKDFVSEQLTSLLVNGVQLPVLGDKEKVIVDFSSPNIAKEMHVGHLRSTIIGESMSRLFEFAGYDVLRLNHVGDWGTQFGMLIAHLQDKFPDYLTVSPPIGDLQAFYKESKKRFDADEEFKKRAYQCVVLLQSKNPDIMKAWNLICDVSREEFKKIYDALDITLIERGESFYQDRMKDIVKEFEDKGFVQVDDGRKIVFVPGCSVPLTIVKSDGGYTYDTSDLAAIKQRLFEEKANKIIYVVDNGQAIHFQTIFAAAQMIGWYDPKVTLVTHVGFGVVLGEDKKKFKTRSGETVRLMDLLEEGLKRSMDKLKEKERDKVLTEEELKAAQTSVAYGCIKYADLSHNRLNDYIFSFDKMLDDRGNTAAYLLYAFTRIRSIARLANIDEAMLQRAARETKIILDHEKEWKLGRCILRFPEILQKILDDLFLHTLCDYIYELATTFTEFYDSCYCVEKDRQTGKVLKVNMWRMLLCEAVAAVMAKGFDILGIKPVQRM
binding [12]: binds

— publication PMC6794377
